The list shows a part of the results. At the low end of the ranking the order means little.

The target in the assay is GST-SBP-SLBP (stem-loop binding protein) (UniProt Q14493). Briefly: targeted RNA Bind-n-Seq.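 Further: DESeq read counts versus GST-SBP nonspecific binding control pulldown.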 The conditions noted are these: RBNS binding buffer: 25 mM Tris pH 7.5, 150 mM KCl, 3 mM MgCl2, 0.1% Tween, 0.5 mg/mL BSA, 1 mM DTT; 27 nM protein, 750 pM RNA pool; temperature not stated; high values mean tight binding.
On to “GGUCACGUCUCAAUCAACUCAACUUCAGGAGUUUACUCCUGUUAACUCAACAGCUCGCAGUCAAG”, for which the binding signal (log2 fold change) was -0.165. Under “GGUCACGUCUCAAUCAACUCACUCGAGGGGGGGAAAACCCCUUUACCCUCAUUUUCAACAGCUCGCAGUCAAG” stands -0.292; under “GGUCACGUCUCAAUCAACUCUAUCCCCAGGGAAACCCCUGGCUUAUUCAACAGCUCGCAGUCAAG”, -0.116. Under “GGUCACGUCUCAAUCAACUCCAAAGAGGGGGGGAAAACCCCUUUACCCUCACCAUCAACAGCUCGCAGUCAAG” stands 0.244. As to “GGUCACGUCUCAAUCAACUCUAUGGCAGGAGUUUACUCCUGGAAUUUCAACAGCUCGCAGUCAAG”, the binding signal (log2 fold change) was -0.0867. With “GGUCACGUCUCAAUCAACUCAUUUGCAGGAGUUUUCUCCUGGUAUUUCAACAGCUCGCAGUCAAG” the figure was -0.109; with “GGUCACGUCUCAAUCAACUCAACGCCAGGAGUUUUCUCCUGCUUUUUCAACAGCUCGCAGUCAAG”, -0.0759.

Consider “GGUCACGUCUCAAUCAACUCUCAAGAGGGGGGGAAAACCCCUUUACCCUCGCCUUCAACAGCUCGCAGUCAAG”, for which the binding signal (log2 fold change) is -0.157. As for “GGUCACGUCUCAAUCAACUCUUCUCCCAGGGAAAGCCCUGGCUAUCUCAACAGCUCGCAGUCAAG”, the binding signal (log2 fold change) is -0.00576. Regarding “GGUCACGUCUCAAUCAACUCUCAAGAGGGGGGGAAAACCCCUUUGCCCUCACCGUCAACAGCUCGCAGUCAAG”, the binding signal (log2 fold change) was 0.21. Take “GGUCACGUCUCAAUCAACUCACAAGAGGGGGGGAAAACCCCUUUACCCUCGUUUUCAACAGCUCGCAGUCAAG”: the binding signal (log2 fold change) is -0.268. In the case of “GGUCACGUCUCAAUCAACUCUUCCCCCAGGGAAAACCCUGGCAUUCUCAACAGCUCGCAGUCAAG”, the binding signal (log2 fold change) was -0.00854. With “GGUCACGUCUCAAUCAACUCUUCAGAGGGGGGGAAAACCCCUUUACCCUCAACAUCAACAGCUCGCAGUCAAG” the figure was -0.365; with “GGUCACGUCUCAAUCAACUCAACUCCCAGGGAAACCCCUGGCAAUCUCAACAGCUCGCAGUCAAG”, 0.0539; with “GGUCACGUCUCAAUCAACUCCAAAGAGGGGGGGAAAACCCCUUUACCCUCAUUUUCAACAGCUCGCAGUCAAG”, -0.219. With “GGUCACGUCUCAAUCAACUCUCAAGAGGGGGGGAAAACCCCUUUGCCCUCACUAUCAACAGCUCGCAGUCAAG” the figure was -0.0223; with “GGUCACGUCUCAAUCAACUCAGUCCCCAGGGAAAGCCCUGGUUAAUUCAACAGCUCGCAGUCAAG”, -0.351; with “GGUCACGUCUCAAUCAACUCAACUCCAGGAGUUUUCUCCUGUUAACUCAACAGCUCGCAGUCAAG”, -0.11. With “GGUCACGUCUCAAUCAACUCAUGUCCAGGAGUUUGCUCCUGCUAUUUCAACAGCUCGCAGUCAAG”, the binding signal (log2 fold change) was found to be 0.0699. With “GGUCACGUCUCAAUCAACUCAGUUUCCAGGGAAAGCCCUGGUUUUUUCAACAGCUCGCAGUCAAG” the figure was -0.0636; with “GGUCACGUCUCAAUCAACUCAACUCCAGGAGUUUCCUCCUGUUAUGUCAACAGCUCGCAGUCAAG”, -0.0604.

“GGUCACGUCUCAAUCAACUCAACGGAGGGGGGGAAAACCCCUUUACCCUCAUAUUCAACAGCUCGCAGUCAAG”: the binding signal (log2 fold change) was -0.148. As to “GGUCACGUCUCAAUCAACUCAUAGGAGGGGGGGAAAACCCCUUUACCCUCACAUUCAACAGCUCGCAGUCAAG”, the binding signal (log2 fold change) was -0.072. Regarding “GGUCACGUCUCAAUCAACUCUAAAGAGGGGGGGAAAACCCCUUUGCCCUCGUCAUCAACAGCUCGCAGUCAAG”, the binding signal (log2 fold change) is -0.395. For the sequence “GGUCACGUCUCAAUCAACUCAUUUCCCAGGGAAAACCCUGGUUUAUUCAACAGCUCGCAGUCAAG”, the binding signal (log2 fold change) was -0.0866. With “GGUCACGUCUCAAUCAACUCUUCCUCCAGGGAAAGCCCUGGCAUUUUCAACAGCUCGCAGUCAAG” the figure was -0.0398; with “GGUCACGUCUCAAUCAACUCCAUCGAGGGGGGGAAAACCCCUUUACCCUCAAACUCAACAGCUCGCAGUCAAG”, -0.126. Under “GGUCACGUCUCAAUCAACUCAACUUCAGGAGUUUUCUCCUGCAUAUUCAACAGCUCGCAGUCAAG” stands 0.199; under “GGUCACGUCUCAAUCAACUCAUCUCCAGGAGUUUCCUCCUGCUAUUUCAACAGCUCGCAGUCAAG”, 0.0636; under “GGUCACGUCUCAAUCAACUCCUCAGAGGGGGGGAAAACCCCUUUACCCUCCAACUCAACAGCUCGCAGUCAAG”, -0.207.

As to “GGUCACGUCUCAAUCAACUCUUUUCCCAGGGAAAACCCUGGUAUACUCAACAGCUCGCAGUCAAG”, the binding signal (log2 fold change) is 0.0427.

In the case of “GGUCACGUCUCAAUCAACUCAAUCCCCAGGGAAAGCCCUGGUUAACUCAACAGCUCGCAGUCAAG”, the binding signal (log2 fold change) was determined as 0.000447.

With “GGUCACGUCUCAAUCAACUCAAGUCCCAGGGAAAACCCUGGCAUAUUCAACAGCUCGCAGUCAAG”, the binding signal (log2 fold change) is -0.479.

Turning to “GGUCACGUCUCAAUCAACUCAAUUUCAGGAGUUUGCUCCUGCUAUCUCAACAGCUCGCAGUCAAG”, the binding signal (log2 fold change) stood at 0.126.

As to “GGUCACGUCUCAAUCAACUCAUCCCCAGGAGUUUGCUCCUGCUUUUUCAACAGCUCGCAGUCAAG”, the binding signal (log2 fold change) was 0.112. In the case of “GGUCACGUCUCAAUCAACUCAAUCCCCAGGGAAAACCCUGGUAAUCUCAACAGCUCGCAGUCAAG”, the binding signal (log2 fold change) is -0.131.

As for “GGUCACGUCUCAAUCAACUCUUUCUCCAGGGAAAGCCCUGGUUAAUUCAACAGCUCGCAGUCAAG”, the binding signal (log2 fold change) is -0.116.

These data come from PMC5892938.
